What is called % Inhibition is the drop in the measured response relative to a control, in per cent.

The campaign covered roughly 150,000 compounds. About 540 (0.36%) showed an effect of 50% or more. The list shows a part of the results.

The test relates to Plasmodium falciparum. Put plainly: Primary screen in NF54 nanoGlo assay, in single point, at 2uM, 72h; a lower Z score goes with more inhibition. The conditions noted are these: timepoint 72 hour. Type of test: functional, Erythrocyte.
With `Cc1cc(C(=O)N[C@@H](C)c2cnn(C)c2C)on1`, the “% Inhibition” value was -8% and the Z score is 1.48.

For the compound `NC(=O)c1cc2c(cc1-c1cc(NCCO)nc3[nH]ccc13)OCO2`, the “% Inhibition” value is given as -1% and the Z score is given as 0.14.

`CC[C@H](NC(=O)N1CCN(C(=O)c2ccccc2)CC1)c1cccc(C)n1`: the “% Inhibition” value is -2% and the Z score worked out at 0.29.

Take `COc1ccc(C2NN=C(c3c[nH]c4ccccc34)C2O)cc1` (centres undefined): the “% Inhibition” value is -1% and the Z score is recorded as 0.13.

In the case of `COc1ccc(CCN2C(=O)[C@H](CC(=O)Nc3ccc4c(c3)ncn4C)N=C2O)cc1`, the “% Inhibition” value is 1% and the Z score was -0.23.

Consider `Oc1nc2ccc(Br)cc2c(-c2ccccc2)c1-c1cc(-c2ccccc2)c2cc(Cl)ccc2n1`, for which the “% Inhibition” value is reported as -18% and the Z score is given as 1.61.

Turning to `O=C(c1ccncc1F)N1CCC(=C2CC2)CC1`, the “% Inhibition” value is -6% and the Z score was 1.02.

On to `Cc1cc(N(C)Cc2ccc(-n3cccn3)cc2)ccn1`, for which the “% Inhibition” value is listed as -7% and the Z score came out at 0.95.

Turning to `COc1ccc(N(CC(=O)N2CCc3ccccc32)S(=O)(=O)c2c(C)[nH]c(=O)[nH]c2=O)cc1`, the “% Inhibition” value is recorded as -4% and the Z score stood at 0.47.

As to `COc1ccc(CCC(=O)Nc2n[nH]c3nc4cc(OC)ccc4cc23)cc1`, the “% Inhibition” value is reported as 5% and the Z score is -0.8.

For `COCc1nc2n(n1)[C@@H](c1ccc(OC)cc1OC)C[C@@H](C)N2`, the “% Inhibition” value is on record as -10% and the Z score was found to be 1.34.

Turning to `COc1ccc(S(=O)(=O)N2CC[C@@H](CO)[C@@H](O)C2)c2c1CCCC2`, the “% Inhibition” value is listed as -13% and the Z score amounted to 1.37.

For `CCONC(=O)CCc1cc(Cl)cs1`, the “% Inhibition” value is listed as -16% and the Z score was 1.4.

Regarding `COc1ccc([C@H]2C3CCCCC3(O)CCN2C(=O)Cc2ccccc2)cc1` (some centres undefined), the “% Inhibition” value is listed as -3% and the Z score is given as 0.46.

Regarding `O=C(Nc1c(-c2ccc(C(F)(F)F)cc2)n[nH]c1C1CC1)c1cccc(F)c1`, the “% Inhibition” value came out at 0% and the Z score worked out at 0.01.

`O=C(COc1ccc(Cl)cc1Cl)N1CC(c2nc(-c3ccco3)no2)C1`: the “% Inhibition” value amounted to 2% and the Z score is on record as -0.19.

As for `COc1cnc(NC(=O)NCc2nc3c(s2)COCC3)s1`, the “% Inhibition” value turned out to be 4% and the Z score is on record as -0.72.

As to `CC(=O)N1c2ccc(F)cc2[C@@H](C)CC12CCCC2`, the “% Inhibition” value was 0% and the Z score is -0.03.

For the compound `Cc1ccc(NC(=O)C2[C@H]3C=C[C@@]4(O3)C(C(=O)NC3CCCC(C)C3C)N(CCN3CCOCC3)C(=O)[C@@H]24)cc1C` (some centres undefined), the “% Inhibition” value stood at 0% and the Z score is 0.07.

On to `Cc1ccncc1-c1cccc(-c2ccn(CCCF)n2)c1`, for which the “% Inhibition” value is -6% and the Z score was found to be 0.88.

`O=C(Nc1ccc(F)cc1F)[C@@H]1CCCCc2nn(Cc3cccc(F)c3)c(=O)n21`: the “% Inhibition” value was -14% and the Z score came out at 1.33.

For `CCn1cc(-c2nnc3cccc(C)n23)c(C)n1`, the “% Inhibition” value was -17% and the Z score amounted to 1.7.

As for `COc1ccc(-c2c(C)nn3c(-c4cccs4)cc(C(F)(F)F)nc23)cc1`, the “% Inhibition” value was 0% and the Z score is -0.03.

For the compound `N#Cc1cnn2c(NC3CCCCCCC3)c(-c3cccc(Cl)c3)[nH]c12`, the “% Inhibition” value is given as -7% and the Z score is given as 1.

Turning to `O=C(Nc1ccccc1CCc1nc2ccccc2[nH]1)c1ccc(F)c(F)c1`, the “% Inhibition” value is recorded as -7% and the Z score is reported as 0.78.

Take `Cn1nnc2c1CCC(NC(=O)N[C@@H]1C[C@H]1c1ccc(Cl)cc1Cl)C2` (some centres undefined): the “% Inhibition” value was 6% and the Z score is -0.86.

With `CCc1cccc(NC(=O)Cn2c(=O)c3c(C(=O)OC)cc(C4CC4)nc3n(C)c2=O)c1`, the “% Inhibition” value is 0% and the Z score was -0.03.

As to `COCc1cccc(C(=O)N2CCn3nc(Cc4ccccc4)cc3C2)n1`, the “% Inhibition” value is given as -16% and the Z score was found to be 1.62.

For `Cc1cccnc1NC(=O)C1CCC(Cn2cnnn2)CC1` (centres undefined), the “% Inhibition” value is -6% and the Z score is reported as 0.74.

`Cc1ccc(C)c(OCC(=O)c2ccc3c(c2)N([C@@H](C)C(=O)NC2CCCCC2)C(=O)CO3)c1`: the “% Inhibition” value is on record as -10% and the Z score was determined as 0.97.

In the case of `CCC1=NS(=O)(=O)c2cccnc2N1c1cccc(C(F)(F)F)c1`, the “% Inhibition” value was -4% and the Z score is 0.43.

With `CN(Cc1ccccc1F)C(=O)[C@H]1CC(=O)N(C)[C@@H]1c1cccnc1`, the “% Inhibition” value is -8% and the Z score came to 1.52.

As to `OC(COCc1cccs1)CN1CCCC1c1ccc[nH]1` (centres undefined), the “% Inhibition” value stood at 5% and the Z score was -0.64.

With `Cc1ccnc(-c2n[nH]c(C(C)NC(C)C3CC(F)(F)C3)n2)c1` (centres undefined), the “% Inhibition” value is given as 25% and the Z score is on record as -2.88.

Consider `CCCNC(=O)N1CCC(c2noc(COc3ccc(C)cc3)n2)CC1`, for which the “% Inhibition” value was -13% and the Z score worked out at 1.7.

In the case of `CCC1(CC)CCCN(C(=O)CNC(C)=O)CC1`, the “% Inhibition” value stood at 5% and the Z score was -0.7.

For `CC1OC(C)C(C(=O)Nc2nc(C3(C)CC3)ns2)C1C` (centres undefined), the “% Inhibition” value was -5% and the Z score was found to be 0.77.

For the compound `CNc1cc(C)nc(N[C@H]2CCN(C(=O)c3ccccn3)C[C@@H]2O)n1`, the “% Inhibition” value is recorded as -26% and the Z score is on record as 2.29.

For `Cc1nnc(CC(=O)N2CCCC[C@H]2c2cc3ccccc3[nH]2)o1`, the “% Inhibition” value was -10% and the Z score is recorded as 1.32.

As for `Cc1nc(C)c(S(=O)(=O)NC2CCCC2(C)CO)s1` (centres undefined), the “% Inhibition” value was -6% and the Z score is on record as 0.51.

As for `CCCc1nn(C)c(C(=O)Nc2ccc(C(=O)c3ccc(F)cc3)cc2)c1Cl`, the “% Inhibition” value was -16% and the Z score amounted to 2.96.

Consider `CCOc1ncccc1-c1n[nH]c(C(=O)NC)n1`, for which the “% Inhibition” value came out at 6% and the Z score is reported as -0.79.

The record behind these values is ChEMBL document CHEMBL4888484, “Replenishing the malaria drug discovery pipeline: Screening and hit evaluation of the MMV Hit Generation Library 1 (HGL1) against asexual blood stage Plasmodium falciparum ,using a nano luciferase reporter read-out” (2022).
